Publication PMC9911399, “Two distinct binding modes provide the RNA-binding protein RbFox with extraordinary sequence specificity”
Where a chain is given by its changes, count along the chain named. The list shows a part of the results.

T1: RBFOX1 RRM RbFoxmut (Fox-RRM*) (Homo sapiens, UniProt Q9NWB1 109-208, R118D;E147R;N151S;E152T)
T1 sequence: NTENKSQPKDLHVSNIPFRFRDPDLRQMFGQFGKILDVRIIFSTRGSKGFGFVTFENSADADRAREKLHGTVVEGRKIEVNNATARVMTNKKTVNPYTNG

B1: GUCCGAA (DNA:RNA)
RNA: GGGAGACCGGAAUUCAGAUUGUCCGUCCGAAUUAAAUCCCGUCGUAGCCACCA
DNA 1: CAATCTGAATTCCGGTCTCCC
DNA 2: TGGTGGCTACGACGGGATT
B2: GAAUUUC (DNA:RNA)
RNA: B1 RNA with U26A, C27A, C28U, G29U, A30U, A31C
DNA 1: CAATCTGAATTCCGGTCTCCC
DNA 2: TGGTGGCTACGACGGGATT
B3: CAUCCUA (DNA:RNA)
RNA: B1 RNA with G25C, U26A, C27U, G29C, A30U
DNA 1: CAATCTGAATTCCGGTCTCCC
DNA 2: TGGTGGCTACGACGGGATT
B4: CCGACCG (DNA:RNA)
RNA: GGGAGACCGGAAUUCAGAUUGUCCCCGACCGUUAAAUCCCGUCGUAGCCACCA
DNA 1: CAATCTGAATTCCGGTCTCCC
DNA 2: TGGTGGCTACGACGGGATT
B5: CGCCUUA (DNA:RNA)
RNA: B1 RNA with G25C, U26G, G29U, A30U
DNA 1: CAATCTGAATTCCGGTCTCCC
DNA 2: TGGTGGCTACGACGGGATT
B6: CGAGUCA (DNA:RNA)
RNA: B4 RNA with C26G, G27A, A28G, C29U, G31A
DNA 1: CAATCTGAATTCCGGTCTCCC
DNA 2: TGGTGGCTACGACGGGATT
B7: AGGCUUU (DNA:RNA)
RNA: B4 RNA with C25A, C26G, A28C, C29U, C30U, G31U
DNA 1: CAATCTGAATTCCGGTCTCCC
DNA 2: TGGTGGCTACGACGGGATT
B8: CGUACCG (DNA:RNA)
RNA: B4 RNA with C26G, G27U
DNA 1: CAATCTGAATTCCGGTCTCCC
DNA 2: TGGTGGCTACGACGGGATT
B9: CGGGGUG (DNA:RNA)
RNA: B4 RNA with C26G, A28G, C29G, C30U
DNA 1: CAATCTGAATTCCGGTCTCCC
DNA 2: TGGTGGCTACGACGGGATT
B10: AGAACAA (DNA:RNA)
RNA: B4 RNA with C25A, C26G, G27A, C30A, G31A
DNA 1: CAATCTGAATTCCGGTCTCCC
DNA 2: TGGTGGCTACGACGGGATT
B11: ACUACCA (DNA:RNA)
RNA: B4 RNA with C25A, G27U, G31A
DNA 1: CAATCTGAATTCCGGTCTCCC
DNA 2: TGGTGGCTACGACGGGATT
B12: CAGCCUU (DNA:RNA)
RNA: B4 RNA with C26A, A28C, C30U, G31U
DNA 1: CAATCTGAATTCCGGTCTCCC
DNA 2: TGGTGGCTACGACGGGATT
B13: GUGGAGA (DNA:RNA)
RNA: B1 RNA with C27G, C28G, G29A, A30G
DNA 1: CAATCTGAATTCCGGTCTCCC
DNA 2: TGGTGGCTACGACGGGATT
B14: CCCCAAC (DNA:RNA)
RNA: B1 RNA with G25C, U26C, G29A, A31C
DNA 1: CAATCTGAATTCCGGTCTCCC
DNA 2: TGGTGGCTACGACGGGATT
B15: CUGCUGC (DNA:RNA)
RNA: B4 RNA with C26U, A28C, C29U, C30G, G31C
DNA 1: CAATCTGAATTCCGGTCTCCC
DNA 2: TGGTGGCTACGACGGGATT
B16: CCCGAGU (DNA:RNA)
RNA: B4 RNA with G27C, A28G, C29A, C30G, G31U
DNA 1: CAATCTGAATTCCGGTCTCCC
DNA 2: TGGTGGCTACGACGGGATT
B17: CACCACU (DNA:RNA)
RNA: B4 RNA with C26A, G27C, A28C, C29A, G31U
DNA 1: CAATCTGAATTCCGGTCTCCC
DNA 2: TGGTGGCTACGACGGGATT
B18: UGAAGUU (DNA:RNA)
RNA: B4 RNA with C25U, C26G, G27A, C29G, C30U, G31U
DNA 1: CAATCTGAATTCCGGTCTCCC
DNA 2: TGGTGGCTACGACGGGATT
B19: UAAUCUA (DNA:RNA)
RNA: B4 RNA with C25U, C26A, G27A, A28U, C30U, G31A
DNA 1: CAATCTGAATTCCGGTCTCCC
DNA 2: TGGTGGCTACGACGGGATT
B20: CAUCAGA (DNA:RNA)
RNA: B1 RNA with G25C, U26A, C27U, G29A, A30G
DNA 1: CAATCTGAATTCCGGTCTCCC
DNA 2: TGGTGGCTACGACGGGATT
B21: CUGGGGA (DNA:RNA)
RNA: B1 RNA with G25C, C27G, C28G, A30G
DNA 1: CAATCTGAATTCCGGTCTCCC
DNA 2: TGGTGGCTACGACGGGATT
B22: AGACAAC (DNA:RNA)
RNA: B1 RNA with G25A, U26G, C27A, G29A, A31C
DNA 1: CAATCTGAATTCCGGTCTCCC
DNA 2: TGGTGGCTACGACGGGATT
B23: CAUAUGG (DNA:RNA)
RNA: B4 RNA with C26A, G27U, C29U, C30G
DNA 1: CAATCTGAATTCCGGTCTCCC
DNA 2: TGGTGGCTACGACGGGATT
B24: ACCUGUC (DNA:RNA)
RNA: B1 RNA with G25A, U26C, C28U, A30U, A31C
DNA 1: CAATCTGAATTCCGGTCTCCC
DNA 2: TGGTGGCTACGACGGGATT
B25: GGUGCAG (DNA:RNA)
RNA: B4 RNA with C25G, C26G, G27U, A28G, C30A
DNA 1: CAATCTGAATTCCGGTCTCCC
DNA 2: TGGTGGCTACGACGGGATT
B26: CGGAGAA (DNA:RNA)
RNA: B4 RNA with C26G, C29G, C30A, G31A
DNA 1: CAATCTGAATTCCGGTCTCCC
DNA 2: TGGTGGCTACGACGGGATT
B27: UCAGUCC (DNA:RNA)
RNA: B4 RNA with C25U, G27A, A28G, C29U, G31C
DNA 1: CAATCTGAATTCCGGTCTCCC
DNA 2: TGGTGGCTACGACGGGATT
B28: UACUAUU (DNA:RNA)
RNA: B1 RNA with G25U, U26A, C28U, G29A, A30U, A31U
DNA 1: CAATCTGAATTCCGGTCTCCC
DNA 2: TGGTGGCTACGACGGGATT
B29: CUGGCUC (DNA:RNA)
RNA: B4 RNA with C26U, A28G, C30U, G31C
DNA 1: CAATCTGAATTCCGGTCTCCC
DNA 2: TGGTGGCTACGACGGGATT
B30: GCAGGCU (DNA:RNA)
RNA: B4 RNA with C25G, G27A, A28G, C29G, G31U
DNA 1: CAATCTGAATTCCGGTCTCCC
DNA 2: TGGTGGCTACGACGGGATT
B31: ACCUACA (DNA:RNA)
RNA: B4 RNA with C25A, G27C, A28U, C29A, G31A
DNA 1: CAATCTGAATTCCGGTCTCCC
DNA 2: TGGTGGCTACGACGGGATT

molecular target: T1, RBFOX1 RRM RbFoxmut (Fox-RRM*); assay: EMSA; HiTS-Eq, 1 nM pool, 10 min; buffer printed only for the single-RNA assays: 10 mM Tris pH 7.5, 150 mM NaCl, 3.4 mM EDTA, 0.001% NP-40, 30 C; settings: tags: His6 N-terminal (pET28a); label: 5' 32P
How it was run: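 Purified wild-type or mutant RbFox RRM at increasing concentrations was equilibrated with 1 nM of 5′-radiolabelled RNA carrying 7 randomized nucleotides for 10 min in 50 µL. Unbound RNA was separated by 8% native PAGE and sequenced. Relative association constants came from read-count changes of each RNA species compared with the control reaction, normalised to the cognate motif.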

Row | Binder | binding signal
1 | B1 | 0.0703 KA relative to UGCAUGU
2 | B2 | 0.0518 KA relative to UGCAUGU
3 | B3 | 0.109 KA relative to UGCAUGU
4 | B4 | 0.102 KA relative to UGCAUGU
5 | B5 | 0.132 KA relative to UGCAUGU
6 | B6 | 0.0837 KA relative to UGCAUGU
7 | B7 | 0.0641 KA relative to UGCAUGU
8 | B8 | 0.122 KA relative to UGCAUGU
9 | B9 | 0.316 KA relative to UGCAUGU
10 | B10 | 0.0614 KA relative to UGCAUGU
11 | B11 | 0.077 KA relative to UGCAUGU
12 | B12 | 0.0828 KA relative to UGCAUGU
13 | B13 | 0.118 KA relative to UGCAUGU
14 | B14 | 0.0788 KA relative to UGCAUGU
15 | B15 | 0.126 KA relative to UGCAUGU
16 | B16 | 0.094 KA relative to UGCAUGU

Row | Binder | binding signal
17 | B17 | 0.0882 KA relative to UGCAUGU
18 | B18 | 0.0793 KA relative to UGCAUGU
19 | B19 | 0.0413 KA relative to UGCAUGU
20 | B20 | 0.0633 KA relative to UGCAUGU
21 | B21 | 0.0977 KA relative to UGCAUGU
22 | B22 | 0.0526 KA relative to UGCAUGU
23 | B23 | 0.0964 KA relative to UGCAUGU
24 | B24 | 0.177 KA relative to UGCAUGU
25 | B25 | 0.105 KA relative to UGCAUGU
26 | B26 | 0.0966 KA relative to UGCAUGU
27 | B27 | 0.0654 KA relative to UGCAUGU
28 | B28 | 0.0732 KA relative to UGCAUGU
29 | B29 | 0.14 KA relative to UGCAUGU
30 | B30 | 0.0762 KA relative to UGCAUGU
31 | B31 | 0.107 KA relative to UGCAUGU
